Measured values from PubChem BioAssay AID686979 (National Center for Advancing Translational Sciences (NCATS), 2013).
“And” between values parts separate entries of the source, which are not always exact repeats. Identical values can stand only once. The whole screen tested about 420,000 compounds, of which about 50,000 (12%) were called active. The shares of active, inactive and inconclusive entries below differ from those in the screen. Calls come from the whole dose curve; as a rule, active = well fitted inhibition curve with a large enough effect; inconclusive = small, poorly fitted or top-dose-only effect; inactive = flat fitted curve, though single readings scatter. A potency beside an inconclusive call is a rough fit, not a confirmed value.

experiment: qHTS for Inhibitors of human tyrosyl-DNA phosphodiesterase 1 (TDP1): qHTS in cells in presence of CPT; details: chicken DT40 Tdp1-/-;hTDP1 cells + 20 nM CPT, ATP luminescence, 48 h; series mostly up to 46.2 µM; note: nearly all actives have a fitted effect of over 55% in size
Outline: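 Cell growth measured by CellTiter-Glo luminescence after a minimum 48 h, 37 C compound exposure with 20 nM CPT in Tdp1-knockout DT40 cells stably expressing hTDP1, seeded 400/well; qHTS titration format.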
Potency is the fitted concentration of half-maximal effect; tags give direction and shape of the fitted curve.

Row | Structure (SMILES) | Potency
1 | CCCCN(C)C(=O)CCCc1c[nH]c2ccccc12 | inconclusive: 23.1 µM [inhibitor, single point]
2 | CCN(CC)S(=O)(=O)c1ccc(OC)c(NS(=O)(=O)c2cccc(C(=O)O)c2)c1 | inactive
3 | COC(=O)/C=C1\NC(=O)C(C)S1 (centres undefined) | inactive
4 | COc1cc(C2c3c(-c4cc(C)cc(C)c4O)n[nH]c3C(=O)N2CCCO)cc(OC)c1OC (centres undefined) | inactive
5 | COc1ccc(C(CC(=O)N2CCCC(C)C2)c2c(O)cc(OC)cc2OC)cc1 (centres undefined) | inconclusive: 29.1 µM [inhibitor, single point]
6 | COc1ccc(-c2cc(-c3ccc(OC)cc3)[nH]n2)cc1 | inconclusive: 11.6 µM [inhibitor, partial curve, poor fit]
7 | Cc1cc(C)c(C(=O)CSC2=NC(N)=C(C#N)C3(CCCCC3)C2C(N)=O)cc1C (centres undefined) | inconclusive: 29.1 µM [inhibitor, single point]
8 | CCCCC(CC)C(=O)O (centres undefined) | inactive
9 | COc1ccc(NC(=O)c2cc(OC)c(OC)c(OC)c2)cc1S(=O)(=O)N1CCCCC1 | inconclusive: 1.03 µM [inhibitor, full curve, poor fit]
10 | CCN(CC)S(=O)(=O)c1ccc(N2CCOCC2)c(NC(=O)CCC2CCCCC2)c1 | active: 20.6 µM
11 | Cc1ccc(/C=C/C(=O)Nc2ccc(O)c3c(=O)cc(-c4ccccc4Cl)oc23)cc1 | inactive
12 | Oc1ccc(C=NN=C2c3ccccc3-c3ccccc32)c(O)c1 | inconclusive: 20.6 µM [inhibitor, single point]
13 | Cc1ccc(S(=O)(=O)N2C[C@H]3C(=O)C[C@@H](c4ccccc4)N(S(=O)(=O)c4ccccc4C)[C@H]3C[C@H]2c2ccccc2)cc1 | inconclusive: 29.1 µM [inhibitor, single point]
14 | Cc1ccc(/C=C/C(=O)Nc2cccc(S(=O)(=O)N3CCOCC3)c2)o1 | active: 23.1 µM
15 | CCCOc1ccc(C(=O)OCC(=O)NCCc2ccc(OCC)c(OCC)c2)cc1OC | inconclusive: 29.1 µM [inhibitor, single point]
16 | O=C(NNc1ccccc1[N+](=O)[O-])Nc1ccc(Cl)c(Cl)c1 | inconclusive: 29.1 µM [inhibitor, single point]
17 | Cc1cccc(C)c1OCC(O)CN1CCN(c2ccccc2)CC1 (centres undefined) | inconclusive: 20.6 µM [inhibitor, partial curve]
18 | CCC(Cc1ccccc1)NC(=O)c1csc2c1CCCCC2 (centres undefined) | active: 13 µM
19 | CC(C)(C)C(=O)Cn1ncc(Br)c(Br)c1=O | active: 4.61 µM
20 | CCOC(=O)[C@H]1NN=C(C(=O)OC)[C@@H]1c1ccccc1 | inactive
21 | COc1cccc(Cn2c(SCc3ccc(C(=O)N4CCC(C)CC4)cc3)nc3ccncc32)c1 | active: 11.6 µM
22 | COC(=O)c1sccc1N/N=C/c1cccc(Oc2ccccc2)c1 | inconclusive: 20.6 µM [inhibitor, single point]

Row | Structure (SMILES) | Potency
23 | CSc1ccc(Cl)c(C(=O)Nc2cc(S(=O)(=O)N3CCOCC3)ccc2N2CCOCC2)c1 | inactive
24 | CC1(C)O[C@@H]2C[C@H]3[C@@H]4C[C@H](F)C5=CC(=O)CC[C@]5(C)[C@H]4[C@@H](O)C[C@]3(C)[C@]2(C(=O)CO)O1 | inactive and inconclusive: 14.3 µM [inhibitor, single point]
25 | CCCNC(=O)CS(=O)(=O)Cc1nc(-c2ccccc2C)oc1C | inactive
26 | Cc1nc2cccnc2nc1C | inactive
27 | Clc1cccc(Cl)c1C[n+]1ccc2ccccc2c1 | active: 1.64 µM
28 | O=C(c1ccccn1)N1CCCC(N2CCN(c3cccc(C(F)(F)F)c3)CC2)C1 (centres undefined) | inconclusive: 20.6 µM [inhibitor, single point]
29 | CCOc1ccc(CN2CCN(CC3=Cc4cccc(OC)c4OC3)CC2CCO)cc1 (centres undefined) | inconclusive: 25.9 µM [inhibitor, single point]
30 | CCn1cc(C(=O)NN)c(=O)c2cc(F)c(N3CCCCC3)cc21 | inconclusive: 23.1 µM [inhibitor, single point]
31 | COc1cc(NC(=O)CCCSc2nc(-c3ccco3)cc(C(F)(F)F)n2)cc(OC)c1OC | inconclusive: 23.1 µM [inhibitor, single point] and inconclusive: 29.1 µM [inhibitor, single point]
32 | CCOC(=O)c1c(C)[nH]c(C(=O)N2CCCC(C(=O)c3cccc(OC)c3)C2)c1C (centres undefined) | inconclusive: 29.1 µM [inhibitor, single point]
33 | CCCS(=O)(=O)N1CCCC(C(=O)NCC(OC)OC)C1 (centres undefined) | inactive
34 | Cc1cc(C(=O)CSc2nnnn2-c2ccccc2)c(C)n1CC1CCCO1 (centres undefined) | inactive
35 | CSc1nnc(C)c(/C=C/Nc2ccc(Cl)cc2)n1 | inconclusive: 29.1 µM [inhibitor, single point]
36 | O=C(CN1CCN(S(=O)(=O)N2CCCCC2)CC1)Nc1ccc(Br)cc1 | inconclusive: 20.6 µM [inhibitor, single point]
37 | CCOC(=O)C1(CC2CCCCO2)CCN(Cc2nccn2-c2cccc(C)c2)CC1 (centres undefined) | inconclusive: 29.1 µM [inhibitor, single point]
38 | Cc1ccc(S(=O)(=O)N2CCCCC2)cc1NC(=O)C1CCN(C(=O)OC(C)(C)C)CC1 | inconclusive: 25.9 µM [inhibitor, single point]
39 | Cc1cccc(OCCCn2c(CO)nc3ccccc32)c1 | inconclusive: 23.1 µM [inhibitor, single point]
40 | CCOc1ccccc1NC(=O)C(OC(=O)c1cc(C)oc1C)c1ccccc1 (centres undefined) | inconclusive: 20.6 µM [inhibitor, partial curve]
41 | CN1c2ccccc2-c2nc3ccccc3n2C1c1ccco1 (centres undefined) | inconclusive: 23.1 µM [inhibitor, single point]
42 | CC(C)(C)OC(=O)N1CCC(c2c(C(=O)NCCN3CCOCC3)cnn2-c2ccccc2)CC1 | active: 5.8 µM
43 | CCOc1ccc(S(=O)(=O)/N=C(/Nc2ccc(C)c(S(=O)(=O)N3CCOCC3)c2)c2ccccc2)cc1 | inconclusive: 23.1 µM [inhibitor, partial curve]
44 | Cc1cc(NC(=O)c2ccc3c(c2)C(=O)N(C2CCCCC2)C3=O)no1 | inconclusive: 10.3 µM [inhibitor, partial curve, poor fit]
